The results in this text go back to the GPR68 mutational scans of Howard et al. (2025).

Sequences and labels used below:
B1: GPR68, Q15743 (parent)
chain: MGNITADNSSMSCTIDHTIHQTLAPVVYVTVLVVGFPANCLSLYFGYLQIKARNELGVYLCNLTVADLFYICSLPFWLQYVLQHDNWSHGDLSCQVCGILLYENIYISVGFLCCISVDRYLAVAHPFRFHQFRTLKAAVGVSVVIWAKELLTSIYFLMHEEVIEDENQHRVCFEHYPIQAWQRAINYYRFLVGFLFPICLLLASYQGILRAVRRSHGTQKSRKDQIQRLVLSTVVIFLACFLPYHVLLLVRSVWEASCDFAKGVFNAYHFSLLLTSFNCVADPVLYCFVSETTHRDLARLRGACLAFLTCSRTGRAREAYPLGAPEASGKSGAQGEEPELLTKLHPAFQTPNSPGSGGFPTGRLA

The least precise scores are not listed. Two further conditions of the source, in which the scores hardly spread, are not listed. Names with del lack the residues named; names with ins carry added residues between the positions named. For some of these results: The concentration of ogerin is not given here.

Data set [1] covers variants of B1. The data set is described as follows: cAMP reporter score (Enrich2 score, wild type = 0); higher = more signal; HEK293T, FACS bins.
The variants in data set [2] derive from B1. Kind of data set: surface expression score (Enrich2 score, wild type = 0); higher = more signal; HEK293T, FACS bins.

As to F277_N278del, the cAMP reporter score in data set [1] (pH 5.5) was -1.95; in data set [1] (pH 6), -1.22; in data set [1] (pH 6, modulator: ogerin) it was -2.23; in data set [1] (pH 6.5, modulator: ogerin) it was -0.222. Besides, the surface expression score in data set [2] is -2.23.

For K262_G263insGSG, the cAMP reporter score was -0.914 in data set [1] (pH 5.5); -0.841 in data set [1] (pH 6); -1.19 in data set [1] (pH 6, modulator: ogerin); -1.21 in data set [1] (pH 6.5, modulator: ogerin). Also, the surface expression score in data set [2] is -1.47.

For the variant D282_P283insG, the cAMP reporter score in data set [1] (pH 5.5) was -1.46; in data set [1] (pH 6), -0.869; in data set [1] (pH 6, modulator: ogerin) it was -1.57; in data set [1] (pH 6.5, modulator: ogerin), -0.777. Also, the surface expression score in data set [2] is -2.15.

S276_F277insGSG: the cAMP reporter score in data set [1] (pH 5.5) is -1.73; in data set [1] (pH 6), 0.122; in data set [1] (pH 6, modulator: ogerin), -0.928; in data set [1] (pH 6.5, modulator: ogerin), -0.975. For the same variant, the surface expression score in data set [2] was -2.85.

For T275_S276insG, the cAMP reporter score in data set [1] (pH 5.5) is -1.42; in data set [1] (pH 6), -2.88; in data set [1] (pH 6, modulator: ogerin) it was -2.02; in data set [1] (pH 6.5, modulator: ogerin) it was -0.571. The surface expression score in data set [2] was -2.64.

On to P283_V284del, for which the cAMP reporter score was -2.09 in data set [1] (pH 5.5); -1.33 in data set [1] (pH 6); -0.833 in data set [1] (pH 6.5, modulator: ogerin). For the same variant, in data set [2], the surface expression score is -2.47.

On to H269_F270insGS, for which the cAMP reporter score is -0.793 in data set [1] (pH 5.5); 0.028 in data set [1] (pH 6); -1.92 in data set [1] (pH 6, modulator: ogerin); -1.75 in data set [1] (pH 6.5, modulator: ogerin). The surface expression score in data set [2] was -0.984.

Consider K262_G263insGS, for which the cAMP reporter score in data set [1] (pH 5.5) was -1.01; in data set [1] (pH 6), 0.149; in data set [1] (pH 6, modulator: ogerin), -0.66; in data set [1] (pH 6.5, modulator: ogerin), -1. Also, the surface expression score in data set [2] is -1.53.

For F277_N278insGSG, the cAMP reporter score in data set [1] (pH 5.5) was -1.71; in data set [1] (pH 6) it was -0.834; in data set [1] (pH 6, modulator: ogerin), -1.81; in data set [1] (pH 6.5, modulator: ogerin), -1.26. Further, the surface expression score in data set [2] is -2.24.

For the variant V280_D282del, the cAMP reporter score in data set [1] (pH 5.5) was -1.38; in data set [1] (pH 6), -1.36; in data set [1] (pH 6, modulator: ogerin), -1.72; in data set [1] (pH 6.5, modulator: ogerin) it was -1.29. Besides, the surface expression score in data set [2] was -2.24.

N266M: the cAMP reporter score is -0.847 in data set [1] (pH 5.5); -0.909 in data set [1] (pH 6); -1.01 in data set [1] (pH 6, modulator: ogerin); -0.865 in data set [1] (pH 6.5, modulator: ogerin). For the same variant, the surface expression score in data set [2] is -0.099.

As to N266P, the cAMP reporter score in data set [1] (pH 5.5) is -0.125; in data set [1] (pH 6), -0.124; in data set [1] (pH 6, modulator: ogerin) it was -1.22; in data set [1] (pH 6.5, modulator: ogerin), -1.1. For the same variant, the surface expression score in data set [2] came out at 1.47.

Turning to N266G, the cAMP reporter score in data set [1] (pH 5.5) is -0.602; in data set [1] (pH 6), -0.003; in data set [1] (pH 6, modulator: ogerin), -0.355; in data set [1] (pH 6.5, modulator: ogerin) it was -1.52. In addition, the surface expression score in data set [2] amounted to 1.22.

Turning to N266L, the cAMP reporter score in data set [1] (pH 5.5) was -0.364; in data set [1] (pH 6) it was 0.126; in data set [1] (pH 6, modulator: ogerin), -0.56; in data set [1] (pH 6.5, modulator: ogerin), -0.683. The surface expression score in data set [2] is -0.283.

Consider N266F, for which the cAMP reporter score in data set [1] (pH 5.5) is -0.384; in data set [1] (pH 6), -0.807; in data set [1] (pH 6, modulator: ogerin), -1.03; in data set [1] (pH 6.5, modulator: ogerin) it was -0.598. Further, in data set [2], the surface expression score was -0.503.

Turning to N266D, the cAMP reporter score in data set [1] (pH 5.5) is 0.564; in data set [1] (pH 6) it was -1.21; in data set [1] (pH 6, modulator: ogerin), 0.011; in data set [1] (pH 6.5, modulator: ogerin), -0.757. Moreover, the surface expression score in data set [2] came to 0.271.

In the case of N266W, the cAMP reporter score is -1.16 in data set [1] (pH 5.5); -2.17 in data set [1] (pH 6); -1.34 in data set [1] (pH 6, modulator: ogerin); 0.613 in data set [1] (pH 6.5, modulator: ogerin). Also, the surface expression score in data set [2] was -0.257.

On to N266I, for which the cAMP reporter score was -0.455 in data set [1] (pH 5.5); 0.033 in data set [1] (pH 6); -0.758 in data set [1] (pH 6, modulator: ogerin); -1.46 in data set [1] (pH 6.5, modulator: ogerin). In data set [2], the surface expression score was determined as 0.503.

Turning to N266Y, the cAMP reporter score is -0.994 in data set [1] (pH 5.5); -1.19 in data set [1] (pH 6); -1.15 in data set [1] (pH 6, modulator: ogerin); -1.29 in data set [1] (pH 6.5, modulator: ogerin). Further, the surface expression score in data set [2] turned out to be 0.153.

For the variant N266Q, the cAMP reporter score is 0.215 in data set [1] (pH 5.5); 0.537 in data set [1] (pH 6); -0.19 in data set [1] (pH 6, modulator: ogerin); -0.348 in data set [1] (pH 6.5, modulator: ogerin). Moreover, the surface expression score in data set [2] amounted to 1.24.

Regarding N266H, the cAMP reporter score was -1.31 in data set [1] (pH 5.5); -0.997 in data set [1] (pH 6); -1.06 in data set [1] (pH 6, modulator: ogerin); -1.44 in data set [1] (pH 6.5, modulator: ogerin). Besides, the surface expression score in data set [2] was -0.041.

Turning to N266T, the cAMP reporter score is -0.557 in data set [1] (pH 5.5); -1.22 in data set [1] (pH 6); -0.25 in data set [1] (pH 6, modulator: ogerin); -0.042 in data set [1] (pH 6.5, modulator: ogerin). Besides, the surface expression score in data set [2] was found to be 0.292.

Consider N266R, for which the cAMP reporter score is -0.566 in data set [1] (pH 5.5); -0.601 in data set [1] (pH 6); -1.45 in data set [1] (pH 6, modulator: ogerin); -2.73 in data set [1] (pH 6.5, modulator: ogerin). Also, the surface expression score in data set [2] is 0.122.

In the case of N266V, the cAMP reporter score in data set [1] (pH 5.5) was -0.525; in data set [1] (pH 6), -1.12; in data set [1] (pH 6, modulator: ogerin), -0.931; in data set [1] (pH 6.5, modulator: ogerin) it was -0.538. Further, the surface expression score in data set [2] is -0.147.

Consider N266A, for which the cAMP reporter score in data set [1] (pH 5.5) is -0.311; in data set [1] (pH 6), -1.13; in data set [1] (pH 6, modulator: ogerin) it was -1.08; in data set [1] (pH 6.5, modulator: ogerin) it was -1.6. The surface expression score in data set [2] amounted to 0.437.

On to N266K, for which the cAMP reporter score was -1.01 in data set [1] (pH 5.5); -0.676 in data set [1] (pH 6); -1.01 in data set [1] (pH 6, modulator: ogerin); -1.29 in data set [1] (pH 6.5, modulator: ogerin). Besides, the surface expression score in data set [2] is -0.308.

N266S: the cAMP reporter score in data set [1] (pH 5.5) is -0.544; in data set [1] (pH 6), -0.026; in data set [1] (pH 6, modulator: ogerin), -1.15; in data set [1] (pH 6.5, modulator: ogerin), -0.37. Besides, the surface expression score in data set [2] is -0.024.

Turning to N266C, the cAMP reporter score in data set [1] (pH 5.5) is -0.801; in data set [1] (pH 6, modulator: ogerin), -1.23; in data set [1] (pH 6.5, modulator: ogerin), -0.996. Moreover, in data set [2], the surface expression score is -1.37.

On to F260_K262del, for which the cAMP reporter score was -1.86 in data set [1] (pH 5.5); -1.66 in data set [1] (pH 6); -1.86 in data set [1] (pH 6, modulator: ogerin); -1.01 in data set [1] (pH 6.5, modulator: ogerin). In data set [2], the surface expression score is -0.704.

With N266_Y268del, the cAMP reporter score in data set [1] (pH 5.5) was -1.77; in data set [1] (pH 6) it was -1.02; in data set [1] (pH 6, modulator: ogerin), -1.05; in data set [1] (pH 6.5, modulator: ogerin) it was -1.58. The surface expression score in data set [2] is -1.44.
